Screen size: about 270,000 compounds; about 620 (0.23%) were called active. The shares of active, inactive and inconclusive entries below differ from those in the screen. The call rests on the fitted dose curve; in most records, active means well fitted inhibition curve with a large enough effect in the polarisation, with a control signal flat (not every such curve was filed as active); inconclusive means small, poorly fitted or top-dose-only effect, or effect the other way, or a change in a side signal; inactive means no such curve, though single readings can be large or run the other way; the % refers to the polarisation. Potencies beside an inconclusive call are fits to weak or partial responses and may not hold up. A note “side channel” means that the fit belongs to a control or component signal, not to the main read-out.
Target: Menin (Homo sapiens) (UniProt O00255)
Chain of UniProt O00255 (O00255 whole entry, looked up): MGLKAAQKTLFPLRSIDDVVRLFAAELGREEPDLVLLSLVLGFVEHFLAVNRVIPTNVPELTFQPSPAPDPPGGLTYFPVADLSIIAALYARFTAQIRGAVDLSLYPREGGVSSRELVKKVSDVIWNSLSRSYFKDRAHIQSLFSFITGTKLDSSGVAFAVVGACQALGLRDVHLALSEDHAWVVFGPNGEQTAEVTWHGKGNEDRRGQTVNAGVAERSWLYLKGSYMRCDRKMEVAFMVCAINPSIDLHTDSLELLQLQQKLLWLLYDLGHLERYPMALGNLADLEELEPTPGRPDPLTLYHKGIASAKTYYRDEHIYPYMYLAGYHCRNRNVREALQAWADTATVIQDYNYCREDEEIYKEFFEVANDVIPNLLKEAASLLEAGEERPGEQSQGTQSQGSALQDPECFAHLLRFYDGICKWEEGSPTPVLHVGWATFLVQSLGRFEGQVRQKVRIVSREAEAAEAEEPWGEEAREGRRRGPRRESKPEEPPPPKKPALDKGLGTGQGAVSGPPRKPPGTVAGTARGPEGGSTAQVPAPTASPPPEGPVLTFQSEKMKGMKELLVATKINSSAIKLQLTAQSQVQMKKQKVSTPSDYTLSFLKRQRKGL
Assay: qHTS Assay for Inhibitors Targeting the Menin-MLL Interaction in MLL Related Leukemias: Competition With Texas Red Labeled MLL-derived Mutant Peptide; on FP activity change, negative = inhibition: % of control where 0% means no effect
Settings: fluorescence polarization; FP activity change, negative = inhibition: at 61.6 µM (top of the series)
Potency means the concentration at half of the fitted maximal effect; tags describe the fitted curve by direction and shape or compound fluorescence and quenching.

| SMILES | FP activity change, negative = inhibition | Potency |
| --- | --- | --- |
| Cc1ccc(N2C(=O)C(Cl)=C(N3CCCCCC3)C2=O)cc1 | inactive: 10.4% | – |
| O=C(Cc1ccccc1)Nc1ccc(NC(=O)c2cccs2)cc1 | – | inconclusive: 8.91 µM [inhibitor, partial curve] |
| c1ccc(-n2c(-c3ccncc3)nnc2-c2ccco2)cc1 | inactive: -8.74% | – |
| Oc1c(Br)cc(Br)cc1C=Nc1ccc2c(c1)OCCO2 | – | inconclusive: 31.6 µM [quencher, side channel, single point] |
| c1coc(-c2nnc3sc(Cc4cccs4)nn23)c1 | – | inconclusive: 35.5 µM [quencher, side channel, single point] |
| O=C(Nc1ccc(Cl)cc1)Nc1nnc(CSCc2ccccc2Cl)s1 | – | inconclusive: 10 µM [inhibitor, partial curve] |
| CCCNC(=O)C12CCC(C)(c3nc4cc(C)c(C)cc4nc31)C2(C)C (configuration not stated) | – | inconclusive: 8.91 µM [fluorescent, side channel, full curve, poor fit] |
| COc1cccc(NC(=O)c2ccc3c(c2)N(C)CCS3)c1 | – | inconclusive: 25.1 µM [quencher, side channel, single point] |
| COc1ccccc1NC(=O)Cn1nnc(-c2ccccc2NC(=O)c2cccs2)n1 | – | inconclusive: 39.8 µM [inhibitor, single point] |
| CCOC(=O)C1CCN(c2ncnc3c2nnn3Cc2ccccc2Cl)CC1 | – | inconclusive: 10 µM [inhibitor, partial curve] |
| COc1ccc(C)cc1S(=O)(=O)N(C)CC(=O)N1CCN(c2ccccc2)CC1 | – | inconclusive: 11.2 µM [fluorescent, side channel, partial curve] |
| Cc1ccc(-n2nnnc2SCC(=O)NNC(=O)c2ccc([N+](=O)[O-])cc2)cc1 | – | inconclusive: 11.2 µM [quencher, side channel, partial curve] |
| CCOc1ccc(Br)cc1S(=O)(=O)Nc1ncn[nH]1 | – | inconclusive: 4.47 µM [inhibitor, full curve] |
| O=C(Nc1ccccc1C(F)(F)F)c1cc(-c2ccc(O)cc2)on1 | – | inconclusive: 20 µM [quencher, side channel, partial curve] |
| CC1=CC2=NC(=O)/C(=C\c3cccn3CCOc3cccc(C)c3)C(=N)N2O1 | – | inconclusive: 12.6 µM [quencher, side channel, partial curve] |
| COc1cc(OC)c(NC(=O)c2c(-c3ccccc3)noc2C)cc1Cl | – | inconclusive: 35.5 µM [inhibitor, single point] |
| CCCc1cc(=O)oc2c3c(cc(OCC(=O)N[C@@H](CSC)C(=O)O)c12)OC(C)(C)CC3 | – | inconclusive: 0.708 µM [inhibitor, full curve, poor fit] |
| CCN(CC)c1ccc(N2C(=O)/C(=C/c3cccs3)SC2=S)cc1 | – | inconclusive: 22.4 µM [quencher, side channel, partial curve, poor fit] |
| Cc1ccc(NC(=O)CSc2nnc(-c3ccco3)n2N)cc1F | – | inconclusive: 39.8 µM [fluorescent, single point] |
| Cc1nnc(NC(=O)CCC(=O)NCc2ccco2)s1 | – | inconclusive: 0.794 µM [quencher, side channel, full curve] |
| O=C(O)C(Cc1ccccc1)N1C(=O)c2ccccc2C1=O (configuration not stated) | inactive: -1.63% | – |

| SMILES | FP activity change, negative = inhibition | Potency |
| --- | --- | --- |
| O=C(CN1CCN(S(=O)(=O)c2ccc3ccccc3c2)CC1)Nc1ccc(N2CCOCC2)cc1 | inactive: 1.68% | – |
| O=C(Nc1ccc(NC(=O)c2ccccc2F)cc1)c1ccccc1F | – | inconclusive: 10 µM [fluorescent, side channel, partial curve] |
| CN(C)CCCN1c2ccccc2Sc2ccc(Cl)cc21 | – | inconclusive: 10 µM [fluorescent, side channel, partial curve] |
| CCC(C)C(NC(=O)OC(C)(C)C)C(=O)NC1COC2CC(n3cc(F)c(=O)[nH]c3=O)OC12 (configuration not stated) | inactive: -11.8% | – |
| COc1ccc(C)cc1NC(=O)CCC(=O)Nc1nnc(C2CCCCC2)s1 | – | inconclusive: 31.6 µM [fluorescent, side channel, partial curve] |
| O=C(NC1CCCC1)C(c1ccsc1)N(Cc1ccccc1)C(=O)Cc1cccs1 (configuration not stated) | – | inconclusive: 17.8 µM [fluorescent, side channel, partial curve] |
| Nc1nonc1-n1nnc(C(=O)N/N=C/c2cccc(Cl)c2Cl)c1CN1CCCC1 | – | inconclusive: 8.91 µM [fluorescent, side channel, full curve] |
| Cc1cccc(CSc2ncc(CO)n2C)c1 | – | inconclusive: 10 µM [inhibitor, partial curve] |
| Cc1cc2oc(=O)cc(CN(C)Cc3cccc(F)c3)c2cc1Cl | – | inconclusive: 3.98 µM [fluorescent, side channel, partial curve] |
| Nc1ccccc1SCC(=O)N1CCc2ccccc21 | – | inconclusive: 8.91 µM [inhibitor, single point] |
| O=S(=O)(Nc1nnc(C(F)(F)F)s1)c1ccc(Cl)cc1 | – | inconclusive: 39.8 µM [quencher, side channel, single point] |
| O=C(NC(c1ccccc1)c1cc(Cl)c2cccnc2c1O)c1cccnc1 (configuration not stated) | – | inconclusive: 28.2 µM [quencher, side channel, single point] |
| COc1cc(-n2cnnn2)ccc1S(=O)(=O)N1CCOCC1 | – | inconclusive: 39.8 µM [inhibitor, single point] |
| COc1ccccc1NS(=O)(=O)c1cccc(NC(=O)Nc2cccc(Cl)c2)c1 | – | inconclusive: 3.16 µM [quencher, side channel, full curve] |
| COc1ccc(NC(=O)c2cc(=O)c3ccccc3o2)cn1 | – | inconclusive: 28.2 µM [quencher, side channel, single point] |
| CCCCCCCCCCCCCCCCOC[C@H](COP(=O)([O-])OCC[N+](C)(C)C)OC(=O)NC | inactive: -10.4% | – |
| COc1ccccc1N1CCN(CCCCN2C(=O)CCC2=O)CC1 | inactive: 8.97% [at 24.8 µM] | – |
| C=CCC(C)(O)c1cccc(Br)c1 (configuration not stated) | inactive: 0.0051% | – |
| CCN(C(=O)CCS(=O)(=O)c1ccc(Br)cc1)c1ccc2c(c1)OCO2 | – | inconclusive: 39.8 µM [inhibitor, single point] |
| N#CCCn1cc(/C=N/NC(N)=S)c(-c2ccc(-c3ccccc3)cc2)n1 | – | inconclusive: 3.55 µM [quencher, side channel, full curve] |
| O=C(NCc1cccs1)Nc1cccs1 | – | inconclusive: 28.2 µM [quencher, side channel, single point] |

| SMILES | FP activity change, negative = inhibition | Potency |
| --- | --- | --- |
| O=[N+]([O-])c1ccccc1N/N=C/c1ccc2c(c1)OCO2 | – | inconclusive: 20 µM [quencher, side channel, partial curve] |
| N#Cc1c(N)nc2c(c1N)CC(=O)N2c1ccc(Cl)cc1 | – | inconclusive: 25.1 µM [quencher, side channel, single point] |
| OCc1cn(-c2ccccc2)nc1-c1cc2ccccc2o1 | – | inconclusive: 11.2 µM [quencher, side channel, partial curve] |
| Cn1cccc1/C=C1\SC(=S)N(NC(=O)c2ccc(Cl)cc2)C1=O | – | inconclusive: 25.1 µM [quencher, side channel, single point] |
| COc1cccc(N2CCN(C(=S)Nc3cccc(C)c3)CC2)c1 | – | inconclusive: 39.8 µM [inhibitor, single point] |
| O=C(N/N=C\c1ccc(Br)o1)C1COc2ccccc2O1 (configuration not stated) | inactive: 13.5% | – |
| CC1=CC(C)(C)n2c(O)c(N=NC(N)=S)c3cccc1c32 | – | inconclusive: 35.5 µM [quencher, side channel, single point] |
| C=CC(=O)N1C(=O)c2ccccc2S1(=O)=O | – | inactive |
| CCN(C(=O)CN1C(=O)NC(c2ccccc2)(c2ccccc2)C1=O)c1ccccc1 | – | inconclusive: 8.91 µM [fluorescent, side channel, partial curve] |
| COc1ccccc1-c1nc2c3ccccc3nc(=S)n2[nH]1 | – | inconclusive: 22.4 µM [quencher, side channel, partial curve] |
| CC(=O)CSc1nnc2cc(C)c3ccccc3n12 | – | inconclusive: 39.8 µM [inhibitor, single point] |
| Cc1ccccc1/C=c1\s/c(=C\C(=O)C(C)(C)C)[nH]c1=O | – | inconclusive: 14.1 µM [quencher, side channel, partial curve] |
| Cc1ccc2nc(-c3ccccc3O)c(Nc3ccc4c(c3)OCCO4)n2c1 | – | inconclusive: 15.8 µM [quencher, side channel, partial curve] |
| O=C1c2ccccc2C(=O)N1Cc1ccccn1 | – | inconclusive: 20 µM [inhibitor, partial curve] |
| Oc1ccc2cc(Br)ccc2c1CN1CCCC1 | – | inconclusive: 22.4 µM [quencher, side channel, partial curve] |
| CCC1=Nc2cc(C(=O)NCCN3CCCC3)ccc2Sc2ccc(C)cc21 | – | inconclusive: 11.2 µM [fluorescent, side channel, partial curve] |
| Cc1cccc(NC(=S)NCCN2CCOCC2)c1 | inactive: 0.902% | – |
| O=C(CCc1ccccc1)NNC(=O)Cc1ccc(Cl)cc1 | – | inconclusive: 20 µM [inhibitor, partial curve] |
| C/C(=N/NC(=O)Cc1ccccc1)c1ccc(C)s1 | – | inconclusive: 31.6 µM [fluorescent, side channel, single point] |
| O=C(Nc1cccc([N+](=O)[O-])c1)N1CCN(c2ccccc2)CC1 | – | inconclusive: 39.8 µM [quencher, single point] |
